Data as given in the RNAGym collection of RNA variant scans (doi:10.7554/elife.90254).
Read counts are not given, so values of variants with three or more changes are uncertain.

B1: LINE1-full (parent)
chain: UACGUAGGUGGUUUUCCCCUGAUAGUGCUAAGGGGGCCUGGAAGUUUGGACUGGGCAGAGCUCAACACAGCGUGGCAAAGUGGCUGUGGCUAGACUGCCUCUCUGGAUUCCUCGUCACUCAGCAGGGCAUCUCUGAGAGAAAUGCC

Variants of: B1
Test: self-cleavage, relative activity (ratio to wild type); higher = more cleavage; in vitro, sequencing; the parent is a self-cleaving ribozyme

| Variant | self-cleavage |
| --- | --- |
| U9A A77G G97C U134G | 0.41 |
| U9A U81A A124G | 0.85 |
| U9A U46A U87C | 0.29 |
| G7A U26G U29A A92G | 0.35 |
| G7A U26G A42G C84G G86A | 0.15 |
| U9C U14C C56U | 0.2 |
| U9C U12C U100A A142G | 1.04 |
| G8U A42G U81A | 2.16 |
| U9A U12G A43G U115C | 0 |
| U9A U96C U108C C145U | 0.18 |
| U9C G48A A67G | 0.55 |
| U9C U12C C63U U132C | 0.78 |
| U9C U12A A24G | 0.71 |
| U9A U62C A64U U73C A142G | 0.14 |
| U9C A59U C118U | 0.93 |
| U9A A43U A69G U81C | 0 |
| U9C A67G A117G | 0 |
| G8A A22G A24U A59U U91A U96C | 0.2 |
| U9A U62C A78G U85C A107G | 0 |
| U9A U13G A69U | 0.18 |
| U9C U12A U132C | 0.96 |
| U9C A64G U115A | 0.47 |
| U9C A67G U130C | 0.56 |
| U9A A65G A67G | 0.26 |

| Variant | self-cleavage |
| --- | --- |
| G8A A42G U100C G126A A141G | 2.41 |
| U9A U13C A43G U81A U130A A136G A142U | 1.61 |
| U9A U45C U81A U85C | 0.27 |
| G8U U73C A79G C113A A121U | 1.66 |
| G8A U15A U62C | 0.2 |
| U9C U14C G36A G55A U81C U100C | 0.62 |
| G7A U26C A50U U96A U119C | 0 |
| U9A A57U U62A A129G | 0.04 |
| U9C A78G U87A C95U | 0.08 |
| U9C A69U A77G U130C | 0.12 |
| U9A U45G A121G | 0.25 |
| G8A A43G G55A A69G A142C | 0.2 |
| U9C A31G U85C | 0 |
| U9C U14C A107G A140U | 0.47 |
| U9C A24G U39C U96C | 0 |
| U9A U81A U100C | 2.49 |
| U9C U13C A92U U115C A138G | 1.97 |
| U9C U12A A107G A142G | 1.21 |
| U9C G83U A94G | 0.23 |
| U9A U15A U100C A138G | 0.89 |
| U9A A65G A94G | 0.11 |
| U9C A30U U62C A129U A138G A141G | 0.25 |
| U9C U13C U73C | 0.97 |
| U9C U12C C37G | 0.69 |

| Variant | self-cleavage |
| --- | --- |
| G8A C71U U81A U91C | 0.17 |
| G7U U12C U81A | 0.6 |
| U9A C56A C103A A142G | 0.11 |
| G8A U45C C71A U109C A121G | 0.31 |
| U9A U23A U46G | 0.9 |
| U9A U62C A141G | 0.11 |
| G8C U130C A142G | 2.27 |
| U9A U45C A94G | 1.64 |
| G7U U14A U91C A107G | 1.31 |
| G8A A30G G54A U96A U108C U134C | 0.12 |
| U9A G10U A59G A79U | 0.08 |
| U9C U14A A69G C71U U115A C120U | 0.16 |
| U9A A22G U132A | 0.75 |
| U9C A43G U62A A78G | 0 |
| U9A C99U A129G | 0.52 |
| G8A A64G A67U | 0.06 |
| G8A A42G A50G G114C A142G | 0.9 |
| U9C C37G U85C | 0.25 |
| U9A U62C A77G A140G | 0 |
| U9C A30G A107G | 0 |
| U9C U13C A22G G40U A77U | 0.92 |
| U9A A59G C84A C103U | 0.09 |
| G8A U12G A129G U130C A136G | 0 |
| U9C A31U G74A | 0.8 |

| Variant | self-cleavage |
| --- | --- |
| U9A U14A A140G | 0.8 |
| G7C U12C U47A G48U A129G U132C A140U | 1.19 |
| U9C A30G U132C | 1.35 |
| U9C G53A U85C C101A U132C | 0.29 |
| U9A U115C A141G | 1.47 |
| U9A U12G U104C | 1.08 |
| U9A G60A U73C U115G | 0.12 |
| U9C C63A A121U | 0.05 |
| G8A U45C G82A U91A | 0.92 |
| U9C G53C U85C U119C A140U | 0.43 |
| G8C U12G A59G U102A | 0.23 |
| U9A A22U G122A A124G | 1.12 |
| G8C A22G A78G | 0.9 |
| U9A U26C U81C C113A | 1.58 |
| U9A U47C U102C | 1.62 |
| U9C A22U A67G G82A A92G | 0.18 |
| U9C A94C G125A | 0.08 |
| U9A U62C U96C C113U | 0 |
| G8A A43G U45C A141U | 1.1 |
| U9A U45C A65G A121G | 0 |
| G7A U62C A67G U132C | 0.1 |
| G7A U26A G105A A142G | 1.12 |
| U9C U13C C16G G53U U115A | 0.51 |
| U9A U87A U100C | 0.18 |

| Variant | self-cleavage |
| --- | --- |
| U9C A67G U73C U87A A138G | 0.77 |
| U9C U12A U85C | 0.24 |
| U9A U13C A42G A65G | 0.16 |
| U9C G32C U119C | 1.24 |
| U9C A136G A142G | 1.58 |
| U9A U20C A64C | 0 |
| U9C A129U U134G U143C | 0 |
| U9C U13C A31G U100C | 1.67 |
| U9C A30G U73A A124U | 1.19 |
| U9A U39C U73C A138U | 0.71 |
| G7U U15C A107G | 2.3 |
| G8C U14A U102A | 0.77 |
| U9A A57G U91C | 0 |
| U9A A30G A65G U134C | 0 |
| G7U U47G G83A | 0.27 |
| G8A U47C U62A | 0.02 |
| G8A U13G U81A U96A U132C | 0.23 |
| U9C C61U A77G A136G | 0.26 |
| U9A U14C U20C U39C | 0.29 |
| U9A A65U A69G A79U G106A U108C A136U | 0.06 |
| U9A U39G U45C U104A | 0 |
| G8A U13C A43G C99U U134C | 1.11 |
| G8C G27A G54C U119G | 0.71 |
| U9C C19U U39C G60C C66A | 0.23 |

| Variant | self-cleavage |
| --- | --- |
| U9C A78G U96C A107U G139A | 0 |
| G8A A42G U81A | 2.94 |
| U9A U23A U73C A136U | 0.66 |
| G8A U73A U130C C145U | 1.61 |
| U9A U100C U108A | 0.6 |
| G7U U46A U102A U130C | 1.78 |
| U9A U96C U119C | 0 |
| U9A A78U U119A | 2.22 |
| G8C A64U U109C U115A | 0.47 |
| U9C G11A U102C U115C A141G | 0.88 |
| U9A U14C U102C A140G | 0.99 |
| G8U U85A U108C U134C | 0.07 |
| G7U A117C A138G | 0.77 |
| U9C A59G U85G A92G | 0.42 |
| U9A U20G A67G | 0 |
| U9C A42G U96C | 0.16 |
| G8U C131U U132A | 1.98 |
| U9C C28A A136U | 1.03 |
| U9C A24G U26C A124U A141G | 0 |
| G7U U13A U45A | 1.01 |
| U9A U14C A57G G135A | 0.87 |
| U9A C71A U134C | 0.2 |
| G7U U12C A43G A65U | 0.53 |
| U9C A50U A78G | 0.97 |

| Variant | self-cleavage |
| --- | --- |
| G8U U20A A43G A140G | 1.71 |
| U9A C63U A77U C103U | 0.4 |
| G7U A67U A107G | 0.17 |
| U9C G25A U26C U46G U52A U85C U100A A107G U115A | 0 |
| U9C A30U A42U A140G | 0.46 |
| U9A G32A A65G A77G | 0.08 |
| U9C A57U U104A U134G | 0.14 |
| U9A U14C A67U U130A A142G | 0.25 |
| G7U U13A U46A A69G | 0.62 |
| U9C A107U U112C | 1.38 |
| U9A U15C C98U C110A | 0.53 |
| U9C U14A U104C | 0.28 |
| G8A U115C A121C A138U | 1.02 |
| U9A U104C A117G | 1.84 |
| G8A A31U U62A A67G A136G | 0.32 |
| U9C A67G U96A A140G | 0.19 |
| U9A U13C A42G U134C | 1.36 |
| U9A C131U A141G | 0.88 |
| U9C U13C U47C A59G | 0.37 |
| U9A U102C U115A | 1.53 |
| U9C A24G U130C | 0.98 |
| U9C A42G A69U U73A | 0.06 |
| U9C G21U G35U | 1.05 |
